Reference: the supplement of paper PMC3334620
In all, about 33,000 sequences were measured (“E-score (-0.5 to 0.5)”: median about -0.053, highest 2% from about 0.37 on). The list shows a part of the results.

molecular target: Hap1 (UniProt P0CE41); test: PBM E-score (8-mer binding enrichment) (E-score (-0.5 to 0.5)); higher = stronger / more preferred TF binding; most listed sequences are background and not binding sites; details: protein concentration: 200 nM; construct: GST-DNA-binding domain
Chain of UniProt P0CE41 (P0CE41 whole entry, the tested form may be a part): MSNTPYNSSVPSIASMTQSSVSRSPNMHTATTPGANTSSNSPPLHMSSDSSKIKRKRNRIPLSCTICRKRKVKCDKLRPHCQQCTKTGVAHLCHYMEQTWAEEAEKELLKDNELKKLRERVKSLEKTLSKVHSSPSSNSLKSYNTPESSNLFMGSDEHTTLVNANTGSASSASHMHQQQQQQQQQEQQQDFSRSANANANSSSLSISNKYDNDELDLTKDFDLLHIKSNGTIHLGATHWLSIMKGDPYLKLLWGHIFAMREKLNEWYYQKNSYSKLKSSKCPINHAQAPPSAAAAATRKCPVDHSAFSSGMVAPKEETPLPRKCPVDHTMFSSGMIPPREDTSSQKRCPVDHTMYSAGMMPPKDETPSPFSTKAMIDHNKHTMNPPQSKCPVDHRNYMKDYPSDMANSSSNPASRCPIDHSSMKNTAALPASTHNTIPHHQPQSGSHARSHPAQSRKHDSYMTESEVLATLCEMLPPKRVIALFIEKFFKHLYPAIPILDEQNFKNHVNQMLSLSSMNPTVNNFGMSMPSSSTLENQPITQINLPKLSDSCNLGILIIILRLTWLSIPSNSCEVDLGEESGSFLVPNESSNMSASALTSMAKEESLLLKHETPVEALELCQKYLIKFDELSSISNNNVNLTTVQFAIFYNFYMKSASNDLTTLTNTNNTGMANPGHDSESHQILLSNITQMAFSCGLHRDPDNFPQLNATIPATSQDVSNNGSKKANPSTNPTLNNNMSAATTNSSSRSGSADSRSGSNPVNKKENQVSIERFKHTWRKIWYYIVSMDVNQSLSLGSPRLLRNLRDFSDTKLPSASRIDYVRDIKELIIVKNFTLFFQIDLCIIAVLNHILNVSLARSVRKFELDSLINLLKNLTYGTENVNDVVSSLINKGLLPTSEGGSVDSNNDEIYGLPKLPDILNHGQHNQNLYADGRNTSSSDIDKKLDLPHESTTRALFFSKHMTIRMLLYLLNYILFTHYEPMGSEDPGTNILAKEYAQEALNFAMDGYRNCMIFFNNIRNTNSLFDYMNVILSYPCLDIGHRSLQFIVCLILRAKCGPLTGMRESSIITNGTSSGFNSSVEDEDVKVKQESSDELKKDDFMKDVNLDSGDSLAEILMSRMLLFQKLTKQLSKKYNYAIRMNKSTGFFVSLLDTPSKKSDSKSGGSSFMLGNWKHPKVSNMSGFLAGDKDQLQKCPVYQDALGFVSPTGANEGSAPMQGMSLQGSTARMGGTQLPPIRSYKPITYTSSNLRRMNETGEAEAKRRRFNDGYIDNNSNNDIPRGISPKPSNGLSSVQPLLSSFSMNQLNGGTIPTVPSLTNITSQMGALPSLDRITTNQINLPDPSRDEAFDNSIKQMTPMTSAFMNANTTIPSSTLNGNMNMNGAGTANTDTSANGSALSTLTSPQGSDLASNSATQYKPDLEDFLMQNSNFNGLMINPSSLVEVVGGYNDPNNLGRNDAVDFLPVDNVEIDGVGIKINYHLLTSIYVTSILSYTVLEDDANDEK
Outline: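 GST-tagged yeast TFs (full-length or DNA-binding domain) were made by PURExpress in vitro transcription/translation and applied at about 100-200 nM to universal all-10-mer Agilent arrays. The arrays were made double-stranded by primer extension, on fresh or once-stripped slides. Bound protein was detected with fluorescent anti-GST, and scans were normalised with masliner. Each ungapped eight-base word, pooled with its reverse complement, received an E-score (modified Wilcoxon-Mann-Whitney statistic) from the Universal PBM Analysis Suite.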

Row | Sequence | PBM E-score
1 | CCAAATCC | 0.0982
2 | ACATTTCC | 0.23
3 | GCGAGGGA | -0.174
4 | ACATGTTG | -0.0202
5 | GATTCAGC | -0.0382
6 | TCCTATAA | -0.126
7 | TGAAGAAA | -0.0563
8 | GAAGACAA | -0.0986
9 | CAATAATG | -0.0747
10 | GCCTAGAA | -0.0616
11 | CTATCCGA | 0.113
12 | CAGACTGG | -0.398
13 | CCACATCC | 0.126
14 | GGTTGTAC | 0.127
15 | CAAAAATA | 4e-05
16 | GTCGAAAC | 0.0168
17 | ATGAACGC | -0.123
18 | ATAGCGTC | -0.209
19 | GCCACGCC | -0.214
20 | CACTTCGA | -0.184
21 | CTACAGGC | 0.0132
22 | ACGTTCGC | -0.0585
23 | AGAACGGC | 0.124
24 | CCATGAAC | -0.066

Row | Sequence | PBM E-score
25 | TATGGACA | -0.0147
26 | AATCAACG | -0.0391
27 | ACTGGCTC | -0.189
28 | CAGGTGCG | -0.0122
29 | AGTCGTGC | -0.162
30 | AGGTCCCC | -0.0485
31 | AGTTGCAC | -0.0539
32 | ATGTTAGC | -0.0912
33 | ACTCAATC | -0.203
34 | TAGTTAGA | -0.125
35 | GCCCATCC | -0.0762
36 | AATCGGCT | 0.314
37 | CAGGGCAG | -0.155
38 | AGTATTCG | -0.00102
39 | CAAAGTTC | 0.0658
40 | CTTATTAA | 0.0248
41 | TACTAACA | -0.203
42 | CGGCGGCC | 0.149
43 | CATTGTGC | -0.163
44 | CGTGCGGA | 0.171
45 | AATCCGTG | 0.218
46 | CAGGAGAA | -0.147
47 | GGTACACA | -0.116
48 | CACAGATG | -0.154

Row | Sequence | PBM E-score
49 | CTAGGTTC | 0.0667
50 | ACACCGCG | 0.133
51 | CCTGTGAG | -0.301
52 | CCTTATCA | -0.178
53 | GAACCGGC | 0.239
54 | ACCCAGAC | -0.132
55 | ACATTCTC | -0.11
56 | TAGCCACA | -0.185
57 | TCTTCCAA | -0.0923
58 | GACGAGGC | 0.0238
59 | AACACCTT | -0.0166
60 | AGTAGACT | -0.0369
61 | GAATACTA | 0.024
62 | ATAGGTTA | -0.00756
63 | GACGTTCC | 0.0589
64 | ACATTGCT | -0.214
65 | TGGGGAAA | 0.0326
66 | CGGTCCTA | 0.33
67 | AATTCTAA | -0.0126
68 | CTTGTTGA | -0.205
69 | AAACATCG | 0.0904
70 | GGATTCAA | -0.0368
71 | CCTAAATC | 0.211
72 | CATAAAAA | 0.00983

Row | Sequence | PBM E-score
73 | CAGCATAA | -0.116
74 | CAGACGCC | -0.0853
75 | AGGCGAAG | -0.0366
76 | CCGCCCAA | -0.0507
77 | ATTTGCAG | 0.0991
78 | GCGTTCCA | -0.174
79 | CAACGCTC | -0.119
80 | CAGAGGAG | -0.217
81 | CCTTGGCC | -0.215
82 | GCATATTA | 0.0952
83 | AGTCGTAG | -0.205
84 | GCGTTTCC | 0.102
85 | TACAGGAA | -0.00019
86 | CTACCTTA | -0.0888
87 | ATGATTCG | 0.106
88 | GAGTTCTA | -0.122
89 | AGCGTGAT | -0.0923
90 | GTACGTCA | -0.147
91 | ATTGGCCG | 0.226
92 | CCTTTCAC | -0.103
93 | GCGTTACA | -0.0249
94 | ATCTGTGG | -0.105
